This is an account of results in PMC4336329 (PLoS ONE, 2015).

The whole screen tested about 310,000 compounds, of which about 2,200 (0.71%) showed an effect of 50% or more. Effects have a minus sign here. The list shows a part of the results.

For this assay, the target named is human ether-à-go-go-related gene (hERG) potassium channel (human, UniProt Q12809). The experiment in a line: primary screen, population patch clamp on CHO cells stably expressing hERG.
human ether-à-go-go-related gene (hERG) potassium channel, sequence (Q12809 whole entry, looked up): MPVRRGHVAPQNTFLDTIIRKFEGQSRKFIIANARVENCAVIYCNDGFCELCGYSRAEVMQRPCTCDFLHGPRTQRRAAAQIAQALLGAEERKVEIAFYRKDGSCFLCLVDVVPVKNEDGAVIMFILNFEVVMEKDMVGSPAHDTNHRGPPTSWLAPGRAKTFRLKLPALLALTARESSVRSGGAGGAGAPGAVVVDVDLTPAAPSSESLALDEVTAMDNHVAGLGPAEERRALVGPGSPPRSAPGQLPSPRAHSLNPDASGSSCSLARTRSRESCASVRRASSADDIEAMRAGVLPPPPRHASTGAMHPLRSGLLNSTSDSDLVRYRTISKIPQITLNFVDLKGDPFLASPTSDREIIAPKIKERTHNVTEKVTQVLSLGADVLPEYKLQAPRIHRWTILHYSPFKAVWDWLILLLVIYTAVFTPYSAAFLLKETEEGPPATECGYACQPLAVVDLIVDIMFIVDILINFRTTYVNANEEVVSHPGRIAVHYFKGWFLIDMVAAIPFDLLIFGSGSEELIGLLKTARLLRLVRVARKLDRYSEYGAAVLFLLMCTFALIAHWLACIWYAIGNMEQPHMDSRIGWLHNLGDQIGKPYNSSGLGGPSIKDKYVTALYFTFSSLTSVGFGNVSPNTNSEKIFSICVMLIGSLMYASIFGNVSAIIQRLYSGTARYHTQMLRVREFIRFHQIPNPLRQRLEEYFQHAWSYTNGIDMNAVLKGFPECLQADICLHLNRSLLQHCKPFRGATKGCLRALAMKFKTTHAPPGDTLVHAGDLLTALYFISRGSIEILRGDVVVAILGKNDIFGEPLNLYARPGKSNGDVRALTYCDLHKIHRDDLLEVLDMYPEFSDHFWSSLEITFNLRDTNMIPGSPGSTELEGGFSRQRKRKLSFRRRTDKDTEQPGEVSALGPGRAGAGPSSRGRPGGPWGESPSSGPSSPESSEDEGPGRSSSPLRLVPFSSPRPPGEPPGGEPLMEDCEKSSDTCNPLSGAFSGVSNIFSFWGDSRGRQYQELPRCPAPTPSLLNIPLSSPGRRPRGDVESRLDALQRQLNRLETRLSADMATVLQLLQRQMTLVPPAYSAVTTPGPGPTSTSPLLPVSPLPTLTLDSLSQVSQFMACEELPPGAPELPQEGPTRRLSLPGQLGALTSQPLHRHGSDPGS
Regarding `Cc1c(C(=O)Nc2nc3ccccc3[nH]2)oc2ccc(Br)cc12`, the “hERG current change (%, negative = inhibition) at 1uM” value is on record as 3.39%.

As to `Cc1[nH][nH]c(=O)c1N=Nc1ccc(S(N)(=O)=O)cc1`, the “hERG current change (%, negative = inhibition) at 1uM” value was 10.6%. The result for `Cc1cccc(NC(=O)Cc2noc3ccccc23)c1C` reads 3.42%; that for `CC(C)C[C@H](NC(=O)N1CCCCCC1)C(=O)O`, 7.47%; that for `Cc1ccc(S(=O)(=O)CC(CN2CCOCC2)N2CCOCC2)cc1` (centres unmarked), 13%. The result for `CN(C)S(=O)(=O)c1cccc(NC(=O)c2cc(-c3cccs3)nn2-c2ccccc2)c1` reads 19.3%; that for `Nc1cc(-c2ccccc2)ccc1O`, 16.5%; that for `CC(=O)OCCn1c(C)[n+](CCOC(C)=O)c2cc(Cl)c(Cl)cc21.[I-]`, 16.7%. The result for `Cn1nc(OCc2ccccc2)ccc1=O` reads -3.38%; that for `O=C1CCCC2=C1C1(CCCCC1)N=C(Nc1nc3ccccc3s1)N2`, 9.3%; that for `COc1ccc(C(CC(=O)O)NC(=O)COc2ccccc2OC)cc1OC` (centres unmarked), 13.6%. Turning to `CC(=O)c1cnc(Nc2nc(C)c3ccc(C)cc3n2)nc1C`, the “hERG current change (%, negative = inhibition) at 1uM” value turned out to be 9.48%. Next, `c1coc(CNc2c3c(nc4ncnn24)CCCC3)c1`: -1.81%; `CCOC(=O)c1sc(Nc2cccc(Cl)c2)nc1C`: 0.0612%. For the compound `COc1ccc(CCNC(=O)/C=C/C(=O)O)cc1OC`, the “hERG current change (%, negative = inhibition) at 1uM” value was 14.7%.

As for `Cc1ccn2c(=O)cc(C)nc2c1`, the “hERG current change (%, negative = inhibition) at 1uM” value is 9.04%. Next, `CC1CCN(C(=O)Cn2nnc(-c3ccccc3)n2)CC1`: 12%; `CCCC(=O)Nc1ccc2nc(SCC(=O)Nc3nccs3)sc2c1`: 11.9%; `CCCC(=O)Nc1cc(OC)c(OC)cc1C(=O)O`: 5.79%. Next, `Oc1c(Cl)cc(Cl)cc1C=Nc1ccc(Br)cc1`: 5.33%. Next, `CC1(C)CC2CC(C)(CN2C(=O)CN2C(=O)c3ccccc3C2=O)C1` (centres unmarked): 10.6%; `c1ccc(-c2csc(Nc3ncccn3)n2)cc1`: 15.2%. On to `Cc1c(NC(=O)Nc2ccc(F)cc2)c(=O)n(-c2ccccc2)n1C`, for which the “hERG current change (%, negative = inhibition) at 1uM” value is reported as 15.3%.

`O=C(Nc1nc(-c2ccc(Cl)s2)cs1)c1ccco1`: the “hERG current change (%, negative = inhibition) at 1uM” value is reported as 10.9%. The result for `CC1CC(=O)Nc2ccccc2N1S(=O)(=O)c1ccccc1` (centres unmarked) reads 1.01%; that for `COc1ccc(C(CCN2CCN(c3ccccc3)CC2)c2c(O)cc(OC)cc2OC)cc1` (centres unmarked), 10.7%; that for `CCCCOc1ccc(C(=O)N/N=C/c2cn[nH]c2-c2ccc(OC)c(OC)c2)cc1`, 7.52%. For `CCCc1cc(=O)[nH]c(SCC(=O)c2cc(C)n(C3CC3)c2C)n1`, the “hERG current change (%, negative = inhibition) at 1uM” value came to 6.07%. The result for `COc1ccc(C(C[N+](=O)[O-])c2c(C)[nH]n(-c3ccccc3)c2=O)cc1` (centres unmarked) reads 21.4%; that for `Cl.O=C(N/N=C1/CN2CCC1CC2)c1cc2ccccc2cc1O`, 24.9%; that for `COc1cccc(CN(C)C(=O)c2ccc(NS(=O)(=O)c3ccc(F)cc3)cc2)c1OC`, 11.1%. Take `C[C@@H]1NC(=O)[C@H](CCC(=O)O)NC(=O)c2cc([N+](=O)[O-])cc(F)c2NCCC[C@@H](C(N)=O)NC1=O`: the “hERG current change (%, negative = inhibition) at 1uM” value is 18.6%. Next, `CCCN(CCC)C(=O)c1c(NC(=O)CC)sc2c1CCCCC2`: 15.3%. Regarding `CCOC(=O)c1ccc(NC(=O)c2cc(OC)c(OC)c(OC)c2Br)cc1`, the “hERG current change (%, negative = inhibition) at 1uM” value stood at 10.3%. For the compound `Nc1cc(=O)[nH]c(SCCSc2ccccc2F)n1`, the “hERG current change (%, negative = inhibition) at 1uM” value is given as 17.9%. Next, `O=C(CCc1nc2ccccc2c(=O)[nH]1)Nc1nnc(SCc2ccccc2F)s1`: -0.582%; `Cc1cccc2cc(CN(CCCO)C(=O)Nc3cccc(Cl)c3)c(=O)[nH]c12`: -8.67%; `O=C1C=C(N2CCCCC2)C2(CCCCC2)O1`: 10.8%. Turning to `CN(CC(=O)N1CCN(c2ccccn2)CC1)S(=O)(=O)c1cccc2nsnc12`, the “hERG current change (%, negative = inhibition) at 1uM” value was determined as 0.884%. Next, `CC(=O)NC(c1ccc(Cl)cc1Cl)c1ccc2cccnc2c1O` (centres unmarked): 17.6%; `O=C(CSc1ncnc2c1oc1ccccc12)c1cccs1`: 12.4%; `CCC(C)n1c(SCC(=O)Nc2cc(C(C)(C)C)nn2-c2ccccc2)nc2ccccc2c1=O` (centres unmarked): 5.96%.

Regarding `CCn1c(SCC(=O)NC2CCCC2)nnc1-c1ccco1`, the “hERG current change (%, negative = inhibition) at 1uM” value stood at 15.5%. The result for `COC(=O)C1=C(c2ccc(-c3ccccc3)c(F)c2)C[C@@H]2CC[C@H]1N2C(=O)N1CCCC1` reads -5.13%; that for `COc1cccc(CN(C)C(=O)c2ccc3c(=O)n4c(nc3c2)CCC4)c1`, 2.37%. Regarding `COCCN(C(=O)c1ccco1)c1nnc(-c2ccc(F)cc2)s1`, the “hERG current change (%, negative = inhibition) at 1uM” value was determined as 11.7%. Take `Cc1ccc(S(=O)(=O)Nc2ccc(-c3ccc4nncn4n3)cc2)cc1`: the “hERG current change (%, negative = inhibition) at 1uM” value was 24.9%.

`Cc1cc(C(=O)Nc2ccc(Br)cc2)cs1`: the “hERG current change (%, negative = inhibition) at 1uM” value is -11.7%. The result for `CCOC(=O)CNC(=O)c1cccs1` reads 13.7%; that for `O=C(Cc1ccccc1)NCC(=O)OC(c1ccccc1)c1ccccc1`, 10.1%; that for `O=C(Nc1nc2ccccc2[nH]1)c1cccs1`, 10.8%. The result for `O=C(O)c1cc(-c2ccc(/C=N/Nc3ccc(Cl)cc3)o2)ccc1Cl` reads 16.5%; that for `CNC(=S)N1C2CCCC1CC(NC(=O)c1ccc(F)cc1)C2` (centres unmarked), 12.4%; that for `Cc1cc(C)c(NC(=O)CS(=O)CC(=O)N2CCN(c3cccc(C)c3C)CC2)c(C)c1` (centres unmarked), 12.2%. The result for `CCOC(=O)Cc1csc(NC(=O)C(NC(=O)C2CCC(C)CC2)C(C)C)n1` (centres unmarked) reads 18.7%. Regarding `O=C(CSc1ncccn1)NCc1ccccc1Cl`, the “hERG current change (%, negative = inhibition) at 1uM” value was 4.91%. Turning to `CCc1nnc(NC(=O)CSc2nnc(Cc3ccc(OC)cc3)o2)s1`, the “hERG current change (%, negative = inhibition) at 1uM” value stood at 12.8%. In the case of `CC(/C=N/NC(=O)c1ccc(Br)cc1)=C\c1ccccc1`, the “hERG current change (%, negative = inhibition) at 1uM” value is given as 5.64%.

Take `O=C(c1ccco1)N1CCN(c2c([N+](=O)[O-])nn(-c3ccc(Cl)cc3)[n+]2[O-])CC1`: the “hERG current change (%, negative = inhibition) at 1uM” value was -45.1%. As for `CCO[C@@H]1OC(C(N)=O)=C[C@H](c2ccccc2)[C@H]1CCCO`, the “hERG current change (%, negative = inhibition) at 1uM” value is 12.4%.

For the compound `CCC12CCCN3CCc4c(n(c5ccccc45)C(O)(C(=O)OC)C1)C32` (centres unmarked), the “hERG current change (%, negative = inhibition) at 1uM” value is reported as -2.18%.

With `CN1C(=O)CC(N2CCN(c3ccccc3)CC2)C1=O` (centres unmarked), the “hERG current change (%, negative = inhibition) at 1uM” value was determined as 18.7%. As to `C=CCn1c(SCC(=O)NC2CCCC2)nc2c([nH]c3ccccc32)c1=O`, the “hERG current change (%, negative = inhibition) at 1uM” value was -16.9%. The result for `CCc1nnc(NC(=O)CSc2nc3ccccc3o2)s1` reads 7.02%; that for `CNC(=S)N/N=C/c1cc(Br)c(OCc2ccncc2)c(OC)c1`, 15.4%. Next, `O=C(c1ccc(COc2ccccc2Cl)o1)N1CCCC1`: -3.16%. The result for `Cc1ccccc1NC(=O)Cn1c(=O)n(Cc2ccccc2)c(=O)c2c(C)c(C)sc21` reads 14%. `COC(=O)C1CCN(C(=O)c2ccc(OC3CCN(Cc4ccccn4)CC3)cc2)CC1`: the “hERG current change (%, negative = inhibition) at 1uM” value is reported as 7.84%. On to `COc1ccc(S(=O)(=O)N(C)C2(C)CCS(=O)(=O)C2)cc1OC` (centres unmarked), for which the “hERG current change (%, negative = inhibition) at 1uM” value worked out at 5.78%. In the case of `CCN(CC)c1nc(N2CCOCC2)c(C#N)c2c1CN(C)CC2`, the “hERG current change (%, negative = inhibition) at 1uM” value worked out at 6.78%. Next, `COc1ccc(C(C)(C)C)cc1NC(=O)COC(=O)c1cnc(C)cn1`: -1.38%; `COc1ccc(CCN2CC(C(=O)NCCCn3nc(C)cc3C)CCC2=O)cc1` (centres unmarked): 0.894%; `COC(=O)c1c(O)c2c([nH]c1=O)CCCC2`: 10%.

As for `Cc1nn(C)c(C(=O)NNC(=S)NCC(C)C)c1Cl`, the “hERG current change (%, negative = inhibition) at 1uM” value is 11.6%. Next, `Cn1c(N)c(C(=O)COC(=O)c2ccc3c(c2)C(=O)N(c2ccc(Cl)cc2)C3=O)c(=O)n(C)c1=O`: 1.27%; `Cn1nnnc1Sc1ncnc2scc(-c3ccc(C#N)cc3)c12`: 9.96%; `CC(C)c1ccc(NC(=O)CCN2C(=O)c3ccc([N+](=O)[O-])cc3C2=O)cc1`: 5.2%.

For `O=C(CSCc1ccccc1)Nc1nccs1`, the “hERG current change (%, negative = inhibition) at 1uM” value was 6.03%. Regarding `O=C1S/C(=C/c2ccc(N3CCOCC3)o2)C(=O)N1Cc1ccc(F)cc1`, the “hERG current change (%, negative = inhibition) at 1uM” value is 1.2%. For the compound `COc1cc(C(=O)Nc2cccc(NC(=O)c3cccs3)c2)cc(OC)c1OC`, the “hERG current change (%, negative = inhibition) at 1uM” value came to 15.8%.

On to `OC(CCN1CCC2(CC1)OCCO2)C(F)(F)F` (centres unmarked), for which the “hERG current change (%, negative = inhibition) at 1uM” value stood at 2.04%.

`CC(C)C(c1nnnn1Cc1ccc(F)cc1)N1CCSCC1` (centres unmarked): the “hERG current change (%, negative = inhibition) at 1uM” value was -10.8%. Next, `CCn1cc(Br)c(C(=O)Nc2nccs2)n1`: 9.21%. In the case of `CCOC(=O)c1cc(-c2ccccc2)sc1NC(=O)CC`, the “hERG current change (%, negative = inhibition) at 1uM” value came out at 4.6%. For `Cc1cccc(-c2nc(CS(=O)CC(=O)NC(C)CCc3ccccc3)c(C)o2)c1` (centres unmarked), the “hERG current change (%, negative = inhibition) at 1uM” value stood at 1.68%. As to `O=C(Nc1ccccn1)C(=O)Nc1ccccn1`, the “hERG current change (%, negative = inhibition) at 1uM” value is reported as 6.89%. `O=C(NCc1cccnc1)c1ccc(CS(=O)(=O)c2ccc(Br)cc2)o1`: the “hERG current change (%, negative = inhibition) at 1uM” value was -3.1%.

For `Cc1ccc(CCNC(=O)C2CCCN(S(=O)(=O)c3cnc[nH]3)C2)cc1` (centres unmarked), the “hERG current change (%, negative = inhibition) at 1uM” value is reported as 7.23%. As to `CCOC(=O)CC1C(=O)NCCN1S(=O)(=O)c1ccc(NC(C)=O)cc1` (centres unmarked), the “hERG current change (%, negative = inhibition) at 1uM” value was found to be 11.2%. Next, `Cc1ccc(S(=O)(=O)NCc2nc(-c3ccccc3)no2)cc1`: 11%. With `CCNC(=S)NNC(=O)CC(C)C`, the “hERG current change (%, negative = inhibition) at 1uM” value worked out at 11.8%. Next, `COc1ccccc1NS(=O)(=O)c1ccc(NC(=O)Cc2cccs2)cc1`: 11.3%.
